In all, about 310,000 compounds went through this assay and about 14,000 (4.5%) showed an effect of 50% or more. Effects have a minus sign here. The list shows a part of the results.
target: human ether-à-go-go-related gene (hERG) potassium channel (human, UniProt Q12809); test: primary screen, population patch clamp on CHO cells stably expressing hERG
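Further: peak tail current of the secondary pulse compared with the same well before compound.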

Sequence of human ether-à-go-go-related gene (hERG) potassium channel (Q12809 whole entry, looked up): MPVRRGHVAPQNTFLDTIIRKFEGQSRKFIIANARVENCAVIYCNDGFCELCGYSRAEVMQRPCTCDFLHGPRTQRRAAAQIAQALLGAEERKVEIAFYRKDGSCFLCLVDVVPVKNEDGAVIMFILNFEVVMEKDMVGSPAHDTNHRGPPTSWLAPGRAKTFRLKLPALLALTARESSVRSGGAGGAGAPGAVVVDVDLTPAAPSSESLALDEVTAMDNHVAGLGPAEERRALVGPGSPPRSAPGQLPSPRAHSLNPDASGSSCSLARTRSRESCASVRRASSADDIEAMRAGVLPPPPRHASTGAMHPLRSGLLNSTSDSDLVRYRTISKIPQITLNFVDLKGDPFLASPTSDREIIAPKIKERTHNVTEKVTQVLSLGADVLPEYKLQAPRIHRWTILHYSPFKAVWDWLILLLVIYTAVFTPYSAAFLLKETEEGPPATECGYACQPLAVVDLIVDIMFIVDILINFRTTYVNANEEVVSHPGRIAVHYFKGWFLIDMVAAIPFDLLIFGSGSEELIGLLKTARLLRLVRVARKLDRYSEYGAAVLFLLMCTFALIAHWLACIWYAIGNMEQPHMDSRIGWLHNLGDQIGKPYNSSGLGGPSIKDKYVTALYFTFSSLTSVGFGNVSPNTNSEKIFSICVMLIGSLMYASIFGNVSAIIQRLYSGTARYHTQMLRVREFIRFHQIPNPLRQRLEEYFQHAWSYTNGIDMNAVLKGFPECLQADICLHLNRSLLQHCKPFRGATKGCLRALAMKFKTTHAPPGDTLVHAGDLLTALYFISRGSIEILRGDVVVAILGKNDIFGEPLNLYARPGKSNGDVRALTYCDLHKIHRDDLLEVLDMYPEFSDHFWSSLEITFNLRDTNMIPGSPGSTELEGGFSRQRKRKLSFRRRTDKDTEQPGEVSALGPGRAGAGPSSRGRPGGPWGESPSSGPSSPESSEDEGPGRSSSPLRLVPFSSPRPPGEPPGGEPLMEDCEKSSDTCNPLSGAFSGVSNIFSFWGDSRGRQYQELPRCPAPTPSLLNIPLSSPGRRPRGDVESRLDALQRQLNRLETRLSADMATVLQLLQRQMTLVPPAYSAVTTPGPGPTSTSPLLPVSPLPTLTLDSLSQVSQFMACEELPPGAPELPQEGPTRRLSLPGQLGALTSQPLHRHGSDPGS

SMILES | hERG current change (%, negative = inhibition) at 10uM [%]
O=C(CC12CC3CC(CC(Br)(C3)C1)C2)OCCN1CCCCC1 | 3.99
O=C(CSc1ncnc2ccccc12)NCc1ccco1 | 7.75
COc1ccc(S(=O)(=O)N(CCC(=O)O)Cc2ccccc2)cc1 | 13.7
COc1ccc(NC(=S)Nc2ccccc2SC)c(OC)c1 | 28.2
COc1ccc(C(=O)NNC(=S)NC(=O)c2ccco2)cc1 | 15.2
CCOc1ccc(Cl)cc1S(=O)(=O)NC1CCCC1 | -3.26
CCS(=O)(=O)c1ccc(-c2cccc(NC(=O)COc3ccccc3)c2)nn1 | 6.57
Nc1cc(OCC(F)(F)F)cc([N+](=O)[O-])c1 | 15.3
COc1cc(OC)c(C#N)c(S(=O)(=O)Cc2ccccc2)c1 | -3.9
Cc1ccc(NC(=O)Nc2cc(C(F)(F)F)c[nH]c2=O)cc1 | 11.4
Cn1c(C(=O)NCc2cccs2)cc2oc3ccccc3c21 | 5.98
CCc1noc(C)c1C(=O)N1CCN(S(=O)(=O)c2ccc(C(C)C)cc2)CC1 | -15.8
CCOc1cc(/C=N/NC(=O)c2cccnc2)ccc1OCC(=O)N(C)C | 19.3
CCOC(=O)N1CCN(C(=O)c2oc(=O)c3ccccc3c2-c2ccc(C)cc2)CC1 | -31.4
Cl.O=C(CN1CCN(c2ncccn2)CC1)N(Cc1ccccc1)c1ccc(F)cc1 | -1.72
CN(C)S(=O)(=O)c1cccc(NC(=O)/C=C/c2ccccc2[N+](=O)[O-])c1 | -5.47
O=C1C2C3C=CC(C3)C2C(=O)N1c1n[nH]c(-c2ccccc2)n1 (centres unmarked) | 1.32
COc1ccc(S(=O)(=O)NCC2CCCN(C(=O)c3cccs3)C2)cc1 (centres unmarked) | -14.5
COc1ccc(N2CCN(C(=O)c3sc4ncn(CC(=O)N5CCCCC5C)c(=O)c4c3C)CC2)cc1 (centres unmarked) | -24.1
CCCNS(=O)(=O)c1ccc(Oc2ncc(C(F)(F)F)cc2Cl)cc1 | 10.8
O=C(Nc1cccc(-n2cnnn2)c1)c1cccs1 | -5.87
O=C(NCCCN1CCN(C2CCCCC2)CC1)Nc1ccccc1C(F)(F)F | -32.3
Cc1c(C(=O)NCc2ccc3c(c2)OCO3)oc2ccc(S(=O)(=O)N3CCCCCC3)cc12 | 0.236

SMILES | hERG current change (%, negative = inhibition) at 10uM [%]
O=C(COC(=O)c1cc(-c2cccs2)nn1-c1ccccc1)Nc1cccc([N+](=O)[O-])c1 | -2.97
O=C(NCc1cccs1)C1CCN(c2nc3ccccc3o2)CC1 | -18.8
COCCCNCCOCCOc1ccc(C)cc1Br | -26.8
Cc1ccc(C)c(C(C)NC(=O)c2ccccc2Br)c1 (centres unmarked) | 8.87
Cc1ccc(NC(=O)CSc2ccc(-c3ccccn3)nn2)cc1F | 13
C=CCn1c(COc2ccccc2OC)nc2ccccc21 | -0.267
CCOC(=O)CNC(=O)C(CC(C)C)NC(=O)C1CCCCC1 (centres unmarked) | -2.63
CCOc1ccccc1/C=N/NC(=O)CNC(=O)c1ccc(S(=O)(=O)N2CCOCC2)cc1 | 2.06
O=C(NCc1ccc2c(c1)OCO2)c1cc2c(s1)CSC2 | 5.75
O=C(c1ccco1)N1CCN(CC(O)Cn2c3ccccc3c3ccccc32)CC1 (centres unmarked) | -41.9
COc1ccc(C)cc1N(C(=O)COc1cccc(F)c1)c1nc2ccccc2s1 | -27.2
COc1ccc(N2CCN(c3nc4c(c(=O)n(C)c(=O)n4C)n3Cc3ccccc3)CC2)cc1 | -35.1
O=C(c1ccccc1)c1ccccc1C(=O)N1CCCC1 | 1.66
O=C(O)CCC1OC(=O)C(O)=C1c1ccccc1 (centres unmarked) | 15.6
Cc1cccc(NC(=O)c2ccc(COc3ccccc3[N+](=O)[O-])o2)n1 | -4.45
O=C(Cc1cccc(C(F)(F)F)c1)N1CCN(CC(=O)N2CCCC2)CC1 | -5.15
CCCc1nnc(SCc2ccc(C(=O)OC)o2)n1N | 2.57
Cc1c(C(=O)N2CCC2)oc2ccc(Br)cc12 | -41.8
Cc1cc(=O)nc2c3ccccc3n(CC(=O)NCCCN3CCCCC3C)n12 (centres unmarked) | 21
CC(CCc1ccccc1)NC(=O)C1CCN(S(=O)(=O)N2CCCCC2)CC1 (centres unmarked) | -23.3
COC(=O)c1[nH]c2ccc(C)cc2c1NC(=O)CN1CCN(c2ccccc2)CC1 | -13.7
O=C(Cc1nnc(NC(=O)c2cccc([N+](=O)[O-])c2)s1)NCc1ccccc1 | 15.2
COc1ccc(N2C(=O)C3CCCN3C2c2ccccc2Cl)cc1 (centres unmarked) | -1.95

SMILES | hERG current change (%, negative = inhibition) at 10uM [%]
CC(C)C(NS(=O)(=O)c1ccc2c(c1)C(C)(C)C(=O)N2C)C(=O)NCc1ccccc1Cl (centres unmarked) | -2.2
COc1ccc(-n2cc(CNCC3CC(=O)N(C4CC4)C3)c(-c3ccccc3Cl)n2)cc1 (centres unmarked) | -13.4
COc1ccccc1N1CCN(C(=O)c2ccc(N3CCCC3=O)cc2)CC1 | 0.8
COC(=O)c1ccc(-c2ccc(/C=N/NC(=O)CC3(C)OCCCO3)o2)cc1 | -11.1
COc1ccc(C(C)NC(=S)NCc2ccc(F)cc2)cc1OC (centres unmarked) | -5.63
COc1ccc(OC)c(C(=O)Cn2nnc(-c3ccc(N4CCOCC4)cc3)n2)c1 | 16.4
CC(C)CCn1c(CN(C)Cc2ccccc2)nc2c1c(=O)n(C)c(=O)n2C | -43.9
O=C1CC(c2ccccc2)Sc2nc(-c3ccccc3)c(-c3ccccc3)n21 (centres unmarked) | 3.84
COc1ccc(N2CCC(CNC(=S)Nc3cc(C)cc(C)c3)C2)cc1 (centres unmarked) | -0.999
CCNC(=O)N1C(CC(=O)OCC)C(=O)NC2CCCCC21 (centres unmarked) | 8.23
COC(=O)c1cccc(NC(=O)CCCOc2ccccc2)c1 | -9.19
S=C(NCC1CCCO1)n1nnc2ccccc21 (centres unmarked) | -4.52
CC(=O)c1cccc(NC(=S)NC(=O)c2ccc(C)cc2)c1 | 22.4
COc1cccc(CNc2cccc(C(F)(F)F)c2)c1O | 0.746
Cc1nc2ccc(S(=O)(=O)NCC(=O)N3CCC(N4CCCCC4)CC3)cc2s1 | -44.2
CSc1nncc(=O)[nH]1 | -2.32
COc1ccc(OC)c(NC(=O)CSc2nc3nc(C)cc(C)n3n2)c1 | -8.1
NC(=O)Cc1nc(-c2ccccc2)cs1 | 12.5
Cc1ccc(C)c(OCc2nnc(N)s2)c1 | 11.3
Cc1cccc(NS(=O)(=O)c2cc3c4c(c2)C(C)C(=O)N4CCC3)c1 (centres unmarked) | 5.81
CN(CC(=O)NCc1cccs1)S(=O)(=O)c1cccc2cccnc12 | 8.53
COc1ccc(C2(CNC(=O)c3cccc([N+](=O)[O-])c3)CCCCC2)cc1OC | -29.4
C/C(=N\OC(=O)NC1CCCCC1)c1sc(-c2ccccc2)nc1C | -19.5

SMILES | hERG current change (%, negative = inhibition) at 10uM [%]
CCn1c(NCc2ccccn2)nc2c1c(=O)n(C)c(=O)n2C | -11
O=C1NC(=O)C(=O)N1 | 0.783
COc1ccc(NC(=O)CSc2nc(C3CC3)nc3ccccc23)cc1 | 5.62
O=C1CCN(Cc2ccc([N+](=O)[O-])cc2)CCN1[C@H](CO)Cc1ccccc1 | -29.5
CC(Sc1nn(-c2ccc(Cl)cc2)c(=S)s1)C(=O)NCC1CCCO1 (centres unmarked) | -15.1
CCOc1cc(C(=O)OCC(=O)Nc2cc(C)on2)ccc1OCC(C)C | 3.71
CCCc1cc(=O)oc2cc(C)cc(OC(C)C(=O)N[C@@H](Cc3c[nH]c4ccccc34)C(=O)O)c12 (some centres unmarked) | 15.2
CN(C)S(=O)(=O)n1cnc([C@H]2c3c(ncn3Cc3ccccc3)C[C@H]3COC(=O)[C@@H]32)c1 | -4.15
CCCN(CCC)S(=O)(=O)c1ccc(C(=O)O)cc1 | -5.57
O=C1CCCN1CC(O)CS(=O)(=O)Cc1ccccc1Cl (centres unmarked) | 18.7
NC(=O)c1ccsc1NC(=O)CN1C(=O)C2CC=CCC2C1=O (centres unmarked) | 9.87
Nc1ccc(C(=O)OCC(=O)Nc2cc([N+](=O)[O-])ccc2F)cc1 | 9.82
COc1ccc(CN(C)S(=O)(=O)c2nnc(NC(=O)c3cccc(C)c3)s2)cc1OC | 12.9
COc1ccc(OC)c(NC(=O)C2CCCN(S(=O)(=O)c3ccc(-n4cnnn4)cc3)C2)c1 (centres unmarked) | -12.5
COc1cc2oc3cc(C)oc(=O)c3c2cc1OC | -16.9
COc1cc(-c2nc3c4ccccc4nc(=S)n3[nH]2)cc(OC)c1OC | 28.9
CCOC(=O)c1cnn(CCOC(=O)C2CC2)c1NC(=O)C1CC1 | -1.17
C=CCn1c(SCC#N)nc2ccccc2c1=O | 2.11
Cc1ccc(S(=O)(=O)NC(=O)NCC2CCN(S(=O)(=O)c3ccccc3)CC2)cc1 | 7.31
COc1ccc2c(=O)c(-c3ccccc3)coc2c1 | 8.57
